Source: PubChem BioAssay AID214 (DTP/NCI, 2004)
Results filed as inconclusive are left out. A number of entries come with more than one value. This list holds those alone. There may be further records. The values listed for one entry repeat one measurement (runs, samples, wells, individuals or studies). Additions like (4×) stand for listed records that agree.

Test system: B6C3F1 mice, colon carcinoma 38 s.c., T/C
Assay: NCI In Vivo Anticancer Drug Screen. Data for tumor model Colon Carcinoma 38 (subcutaneous) in B6C3F1 mice
Details: endpoint: median tumor weight (est.), higher = larger tumour
Experimental: The antitumor activity of compounds was measured in mice bearing transplantable tumors. Survival or tumor size were measured and the results are expressed as the measurement made in the treated group (T) divided by the measurement made in the vehicle treated control group (C). The tumor model used in this assay is Colon Carcinoma 38 (subcutaneous) in B6C3F1 mice

[1] = dose: 50.0 mg/kg/injection, schedule: Q07DX002 (ip), vehicle: Klucel (hydroxypropylcellulose) (HPC)
[2] = dose: 200.0 mg/kg/injection, schedule: Q07DX002 (ip), vehicle: Klucel (hydroxypropylcellulose) (HPC)
[3] = dose: 25.0 mg/kg/injection, schedule: Q07DX002 (ip), vehicle: Klucel (hydroxypropylcellulose) (HPC)

`CCN(CC)CCOC(=O)Cc1cccc2c(=O)cc(-c3ccccc3)oc12` was tested, and the T/C (dose: 15.82 mg/kg/injection, schedule: Q01DX001 (iv), vehicle: saline) was 56 % of control and 100 % of control, the T/C (dose: 15.82 mg/kg/injection, schedule: Q07DX002 (iv), vehicle: saline) was 36 % of control and 109 % of control and the T/C (dose: 21.09 mg/kg/injection, schedule: Q01DX001 (iv), vehicle: saline) was 74 % of control and 155 % of control. For the same molecule, the T/C (dose: 28.13 mg/kg/injection, schedule: Q07DX002 (iv), vehicle: saline) was 69 % of control and 280 % of control, the T/C (dose: 37.5 mg/kg/injection, schedule: Q07DX002 (iv), vehicle: saline) was 63 % of control and 212 % of control and the T/C (dose: 112.5 mg/kg/injection, schedule: Q01DX001 (ip), vehicle: saline) was 34 % of control and 74 % of control. For the same molecule, the T/C (dose: 112.5 mg/kg/injection, schedule: Q07DX002 (ip), vehicle: saline) was 54 % of control, 62 % of control, 87 % of control, the T/C (dose: 150.0 mg/kg/injection, schedule: Q01DX001 (ip), vehicle: saline) was 35 % of control and 88 % of control and the T/C (dose: 150.0 mg/kg/injection, schedule: Q07DX002 (ip), vehicle: saline) was 8 % of control, 10 % of control, 35 % of control.

With `Nc1ccc2c(c1)CN1C(=O)c3ccccc3C1=N2` the T/C (dose: 50.0 mg/kg/injection, schedule: Q07DX002 (ip), vehicle: other) was 28 % of control and 89 % of control.

`CCC(C(=O)O)C(=O)O.[NH2-].[NH2-].[Pt+2]` was tested, and the T/C (dose: 50.0 mg/kg/injection, schedule: Q07DX002 (ip), vehicle: saline) was 41 % of control, 100 % of control, 102 % of control and the T/C (dose: 100.0 mg/kg/injection, schedule: Q07DX002 (ip), vehicle: saline) was 22 % of control, 76 % of control, 78 % of control.

In the case of `C[n+]1c(-c2cccc(OCCOCCOc3cccc(-c4c5cc(N)ccc5c5ccc(N)cc5[n+]4C)c3)c2)c2cc(N)ccc2c2ccc(N)cc21`, the T/C (dose: 32.0 mg/kg/injection, schedule: Q07DX002 (ip), vehicle: water) is reported as 36 % of control and 85 % of control.

In the case of `O=C(O)Cc1cccc2c(=O)cc(-c3ccccc3)oc12`, the T/C (dose: 200.0 mg/kg/injection, schedule: Q07DX002 (iv), vehicle: sodium bicarbonate) is reported as 7 % of control and 107 % of control, the T/C (dose: 267.0 mg/kg/injection, schedule: Q07DX002 (ip), vehicle: sodium bicarbonate) is reported as 43 % of control and 108 % of control and the T/C (dose: 356.0 mg/kg/injection, schedule: Q07DX002 (ip), vehicle: sodium bicarbonate) is reported as 4 % of control and 91 % of control.

In the case of `N[C@@H](Cc1ccc(N(CCCl)CCCl)cc1)C(=O)O`, the T/C (dose: 2.5 mg/kg/injection, schedule: Q07DX002 (ip), vehicle: suspension in saline) is reported as 58 % of control, 59 % of control, 90 % of control, the T/C (dose: 5.0 mg/kg/injection, schedule: Q07DX002 (ip), vehicle: suspension in saline) is reported as 27 % of control, 89 % of control, 111 % of control and the T/C (dose: 10.0 mg/kg/injection, schedule: Q07DX002 (ip), vehicle: suspension in saline) is reported as 15 % of control and 50 % of control.

With `O=NN(CCF)C(=O)NC1CCCCC1` the T/C [1] was 2 % of control and 44 % of control.

For `O=C(CCBr)N1CCN(C(=O)CCBr)CC1`, the T/C (dose: 160.0 mg/kg/injection, schedule: Q07DX002 (ip), vehicle: saline with Tween-80) was 12 % of control, 25 % of control, 40 % of control.

In the case of `Cn1cc(C2NC(=O)c3ccccc3N2)c2ccccc21` (stereo not drawn), the T/C (dose: 800.0 mg/kg/injection, schedule: Q07DX002 (ip), vehicle: Klucel (hydroxypropylcellulose) (HPC)) is reported as 101 % of control and 178 % of control.

`C[C@@](O)(/C=C/[C@H]1CC=CC(=O)O1)[C@@H](C[C@@H](O)\C=C/C=C\C=C\CO)OP(=O)(O)O` was tested, and the T/C (dose: 12.5 mg/kg/injection, schedule: Q07DX002 (ip), vehicle: other) was 33 % of control and 120 % of control and the T/C (dose: 25.0 mg/kg/injection, schedule: Q07DX002 (ip), vehicle: other) was 93 % of control and 150 % of control.

In the case of `Nc1nc(-c2ccccc2)c(Br)c(=O)[nH]1`, the T/C (dose: 800.0 mg/kg/injection, schedule: Q07DX002 (ip), vehicle: saline with Tween-80) is reported as 88 % of control and 170 % of control, the T/C (dose: 1600.0 mg/kg/injection, schedule: Q07DX002 (ip), vehicle: saline with Tween-80) is reported as 46 % of control and 87 % of control and the T/C (dose: 3200.0 mg/kg/injection, schedule: Q07DX002 (ip), vehicle: saline with Tween-80) is reported as 59 % of control and 114 % of control.

With `CO[C@@]12[C@H](COC(N)=O)C3=C(C(=O)C(C)=C(N)C3=O)N1C[C@@H]1N[C@@H]12` the T/C (dose: 1.0 mg/kg/injection, schedule: Q07DX002 (ip), vehicle: saline) was 21 % of control, 85 % of control, 107 % of control and the T/C (dose: 2.0 mg/kg/injection, schedule: Q07DX002 (ip), vehicle: saline) was 39 % of control, 49 % of control, 68 % of control.

With `Cc1ccc(NCCN(C)C)c2c(=O)c3cc(O)ccc3sc12` the T/C [2] was 32 % of control and 106 % of control.

With `COc1ccc2cc1Oc1ccc(cc1)C[C@H]1c3cc(c(OC)cc3CCN1C)Oc1c(OC)c(OC)cc3c1[C@H](C2)N(C)CC3` the T/C (dose: 75.0 mg/kg/injection, schedule: Q07DX002 (ip), vehicle: saline with Tween-80) was 103 % of control and 159 % of control.

`NC(CCl)=NCC12CC3CC(CC(C3)C1)C2` was tested, and the T/C [3] was 87 % of control and 124 % of control and the T/C [1] was 114 % of control and 166 % of control.

In the case of `O=C(CCCCCCC(=O)ON1C(=O)CCC1=O)ON1C(=O)CCC1=O`, the T/C (dose: 50.0 mg/kg/injection, schedule: Q07DX002 (ip), vehicle: saline with Tween-80) is reported as 68 % of control and 120 % of control and the T/C (dose: 100.0 mg/kg/injection, schedule: Q07DX002 (ip), vehicle: saline with Tween-80) is reported as 44 % of control and 120 % of control.

With `Cn1c(=O)[nH]c2nncnc2c1=O` the T/C (dose: 25.0 mg/kg/injection, schedule: Q07DX002 (ip), vehicle: water) was 122 % of control and 158 % of control.

In the case of `Cc1cc(Nc2ccc3c(c2)OCO3)c2cc3c(cc2n1)OCO3`, the T/C [3] is reported as 41 % of control and 88 % of control (2×) and the T/C [2] is reported as 51 % of control and 123 % of control.
